{"source": "PubChem BioAssay AID686979", "about": "(National Center for Advancing Translational Sciences (NCATS), 2013)", "note": "Among all 420,000 compounds or so, about 50,000 (12%) were called active. The shares of active, inactive and inconclusive entries below differ from those in the screen. Calls come from the whole dose curve; as a rule, active = well fitted inhibition curve with a large enough effect; inconclusive = small, poorly fitted or top-dose-only effect; inactive = flat fitted curve, though single readings scatter. No potency is given beside an inconclusive call; the fits are too rough. Potency is the fitted concentration of half-maximal effect; tags give direction and shape of the fitted curve.", "data": [{"assay": "qHTS for Inhibitors of human tyrosyl-DNA phosphodiesterase 1 (TDP1): qHTS in cells in presence of CPT; note: nearly all actives have a fitted effect of over 55% in size", "settings": "chicken DT40 Tdp1-/-;hTDP1 cells + 20 nM CPT, ATP luminescence, 48 h; series mostly up to 46.2 µM", "how_it_was_run": "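Chicken DT40 Tdp1-/- cells complemented with human TDP1, 400 cells/well, exposed to compounds plus 20 nM camptothecin for at least 48 h at 37 C; viability read as ATP content by CellTiter-Glo luminescence.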", "values": [{"smiles": "Cc1ccc2cc(/C=N/NC(=O)CN3CCCCC3)c(Cl)nc2c1", "Potency": "inconclusive [inhibitor, single point]"}, {"smiles": "COc1ccc(C(=O)N/N=C(\\C)CC(=O)Nc2ccccn2)cc1OC", "Potency": "inconclusive [inhibitor, single point]"}, {"smiles": "Cc1ccc(N2CCN(C(=O)C3CCN(S(=O)(=O)c4cccc5nsnc45)CC3)CC2C)cc1", "note": "(stereo not drawn)", "Potency": "inconclusive [inhibitor, single point]"}, {"smiles": "COc1cc(C(=O)N2CCN(c3cccc(C)c3C)CC2)cc(OC)c1OC", "Potency": "active: 0.82 µM"}, {"smiles": "COC(=O)c1ccc2nc(-c3ccc(C#N)cc3)c(Cc3cccc(Cl)c3)n2c1", "Potency": "active: 20.6 µM"}, {"smiles": "COc1ccc(CC(=O)N/N=C(/C)c2ccco2)cc1", "Potency": "inactive"}, {"smiles": "CCN(Cc1ccc(NC(C)=O)cc1)CC1CCCN(CCc2cccc(OC)c2)C1", "note": "(stereo not drawn)", "Potency": "inconclusive [inhibitor, single point]"}, {"smiles": "COc1cccc(-n2c(SCC(N)=O)nc3c(oc4ccccc43)c2=O)c1", "Potency": "inconclusive [inhibitor, single point]"}, {"smiles": "CCc1ccccc1NC(=O)CCCn1c(=O)c2cccn2c2ccccc21", "Potency": "inconclusive [inhibitor, single point]"}, {"smiles": "Cc1cc(C)nc(NS(=O)(=O)c2ccc(NC(=O)c3ccccc3Br)cc2)n1", "Potency": "inactive"}, {"smiles": "COC(=O)C1CCN(S(=O)(=O)CCNC(=O)c2ccc3c(c2)OCO3)CC1", "Potency": "inactive"}, {"smiles": "CCOc1ccc(C=NNC(=O)c2cccc3ccccc23)cc1OCC", "Potency": "inconclusive [inhibitor, single point]"}, {"smiles": "S=C(Nc1ccc(Nc2ccccc2)cc1)NC1CCCCCC1", "Potency": "active: 23.1 µM"}, {"smiles": "O=C(c1ccc(Cl)c(S(=O)(=O)N2CCCCCC2)c1)N1CCN(c2ccccc2O)CC1", "Potency": "inconclusive [inhibitor, single point]"}, {"smiles": "CCOC(=O)C1=CC[C@H]2c3c(c4ccccc4n3C)C[C@H]1N2C", "Potency": "active: 29.1 µM"}, {"smiles": "Cc1ccccc1N1CCN(C2CCCN(C(=O)CCC(F)(F)F)C2)CC1", "note": "(stereo not drawn)", "Potency": "inconclusive [inhibitor, single point]"}, {"smiles": "CCOc1ccc(N2CC(O)(c3cccs3)[N+]3=C2CCCC3)cc1", "note": "(stereo not drawn)", "Potency": "inconclusive [inhibitor, partial curve, poor fit]"}, {"smiles": "CN(CC(=O)N(CCO)Cc1ccccc1)S(=O)(=O)c1ccc2c(c1)c(=O)n(C)c(=O)n2C", "Potency": "inactive"}, {"smiles": "CCOC(=O)c1c(C)[nH]c(C(=O)N/N=C/c2ccc(Br)cc2)c1C", "Potency": "active: 1.16 µM"}, {"smiles": "COc1ccc(CCNC(=O)C(=O)NCC2CCCN2S(=O)(=O)c2ccc(OC)cc2)cc1", "note": "(stereo not drawn)", "Potency": "inconclusive [inhibitor, single point]"}, {"smiles": "CC(=O)c1c(C)[nH]c(C2=NNC(=NCc3ccccc3)SC2)c1C", "Potency": "inconclusive [inhibitor, single point]"}, {"smiles": "CSc1nsc(/C=C/Nc2ccc(O)cc2C)c1C#N", "Potency": "inconclusive [inhibitor, single point]"}, {"smiles": "COc1cc(N)c(Cl)cc1C(=O)OCC(=O)N1c2ccccc2NC(=O)C1(C)C", "Potency": "inconclusive [inhibitor, single point]"}, {"smiles": "COc1cc2c(C(=O)N3CCN(c4cccc(Cl)c4)CC3)cn(CC(C)C)c(=O)c2cc1OC", "Potency": "active: 23.1 µM"}, {"smiles": "COc1cc(CNc2nccn3ccnc23)cc(OC)c1", "Potency": "inconclusive [inhibitor, partial curve]"}, {"smiles": "O=C1CC(NS(=O)(=O)c2ccccc2)CN1c1ccc2c(c1)OCCO2", "note": "(stereo not drawn)", "Potency": "inactive"}, {"smiles": "O=C1CN(C(=O)Cc2ccccc2)C(c2ccc(F)cc2)c2cc(Br)ccc2N1", "note": "(stereo not drawn)", "Potency": "inconclusive [inhibitor, single point]"}, {"smiles": "COc1cc(-c2nc(CN3CCCN(C(=O)c4ccco4)CC3)c(C)o2)ccc1F", "Potency": "inconclusive [inhibitor, single point]"}, {"smiles": "COC(=O)[C@@]12C[C@@H](CC(=O)NCc3ccccc3)C(=O)N(Cc3cccc4ccccc34)C1=CCC(C)(C)C2", "Potency": "inconclusive [inhibitor, partial curve, poor fit]"}, {"smiles": "O=C1[C@H]2[C@@H](c3ccccc3)N[C@]3(CCCN(CC4CCCCC4)C3=O)[C@H]2C(=O)N1Cc1ccccc1", "Potency": "inconclusive [inhibitor, single point]"}, {"smiles": "CCOC(=O)N1CCN(C(=O)C[C@@H]2C[C@@]3(C(=O)OCC)CCCC=C3N(Cc3ccco3)C2=O)CC1", "Potency": "inactive"}, {"smiles": "Cc1ccc(C(=O)OCC(=O)N2CCC(Cc3ccccc3)CC2)cc1N", "Potency": "inconclusive [inhibitor, single point]"}, {"smiles": "CCCc1nn2c(=O)cc(COC(=O)c3ccc(NC(=O)COc4ccccc4F)cc3)nc2s1", "Potency": "inconclusive [inhibitor, single point]"}, {"smiles": "Cc1ccc([C@H]2C[C@H](n3cc(COC(=O)c4ccccc4)nn3)[C@@H](O)CN2C(=O)c2cccs2)cc1", "Potency": "inactive"}, {"smiles": "S=C(NCc1ccc(Cl)cc1)N1CCN(c2ccccn2)CC1", "Potency": "inactive"}, {"smiles": "CCCS(=O)(=O)c1c(S(=O)(=O)CCC)c2cc(-c3ccncc3)ccn2c1C(=O)OC", "Potency": "inconclusive [inhibitor, single point]"}, {"smiles": "Cc1cc(=O)n2nc(N3CCC(C(=O)NCc4cccc(Br)c4)CC3)sc2n1", "Potency": "inactive"}, {"smiles": "O=C(c1nn2c(C(F)(F)F)cc(-c3cccs3)nc2c1Br)N1CCCc2ccccc21", "Potency": "active: 9.2 µM"}, {"smiles": "COc1ccc(C(C)C)cc1S(=O)(=O)n1cnc(C)c1", "Potency": "active: 16.4 µM"}, {"smiles": "COc1cccc(COC(=O)c2cc(S(=O)(=O)N3CCOCC3)ccc2Cl)c1OC", "Potency": "inconclusive [inhibitor, single point]"}, {"smiles": "O=C(CSc1nnc(N2CCCC2)n1-c1ccccc1Cl)N1CCN(c2ccccn2)CC1", "Potency": "inconclusive [inhibitor, single point]"}, {"smiles": "COc1ccc(NS(=O)(=O)c2ccc3c(c2)[C@H]2C=CC[C@H]2[C@@H](c2ccc(C(=O)O)cc2)N3)cc1", "Potency": "inconclusive [inhibitor, single point]"}, {"smiles": "Cc1noc(-c2ccc(-c3noc(-c4ccc([N+](=O)[O-])c(C)c4)n3)cc2)n1", "Potency": "inactive"}, {"smiles": "Cc1ccc(CN2C(=O)CCC2C(=O)NCCN2CCN(c3cccc(Cl)c3)CC2)cc1", "note": "(stereo not drawn)", "Potency": "inconclusive [inhibitor, single point]"}, {"smiles": "O=C1C=C(NCc2ccccc2)c2ccccc2C1=O", "Potency": "active: 5.8 µM"}, {"smiles": "O=[N+]([O-])c1cccc(/C=C/c2ccc3cccc(O)c3n2)c1", "Potency": "active: 4.61 µM"}, {"smiles": "CC(C)c1ccc(N2C(=O)N(Cc3cccc([N+](=O)[O-])c3)c3ccccc3S2(=O)=O)cc1", "Potency": "inconclusive [inhibitor, partial curve]"}, {"smiles": "CCOc1ccc(NC(=O)[C@@H](c2ccccc2)N2Cc3ccccc3C2=O)cc1", "Potency": "inactive"}, {"smiles": "CC1Cc2cc(S(=O)(=O)NCc3ccc(Cl)cc3)ccc2N1C(=O)C1CCC1", "note": "(stereo not drawn)", "Potency": "active: 23.1 µM"}, {"smiles": "CC(C)C1(C)NC(c2ccc3c(c2)OCO3)=CC(c2ccccc2O)N1", "note": "(stereo not drawn)", "Potency": "inconclusive [inhibitor, single point]"}, {"smiles": "COc1ccc(CCn2ccc(O)c(Cc3ccc(Cl)cc3Cl)c2=O)cc1OC", "Potency": "inactive"}, {"smiles": "CCC(C)C1C(C#N)=C(N)OC2=C1C(=O)CC(C)(C)C2", "note": "(stereo not drawn)", "Potency": "inconclusive [inhibitor, partial curve]"}, {"smiles": "O=C(COC(=O)c1nc(Cl)ccc1Cl)NCCc1ccccc1", "Potency": "inactive"}, {"smiles": "Cc1cccn2c(=O)c(C(=O)N3CCN(c4ccc(Cl)cc4)CC3)cnc12", "Potency": "inconclusive [inhibitor, single point]"}, {"smiles": "OCCN1CCN(Cc2cccc(Oc3ccc(Cl)cc3)c2)CC1", "Potency": "inconclusive [inhibitor, single point]"}, {"smiles": "Cc1nc(N2CCOCC2)nc2c1CCC2", "Potency": "inactive"}, {"smiles": "CC(C)CCCN1C(Nc2ccccc2)=NC[C@@H]1Cc1ccccc1", "Potency": "inconclusive [inhibitor, single point]"}, {"smiles": "CCN(CC(=O)c1c(N)n(C)c(=O)n(C)c1=O)c1cccc2ccccc12", "Potency": "inconclusive [inhibitor, partial curve]"}, {"smiles": "Cc1cc2c(cc1C)-n1nnnc1C(N1CCCNCC1)C(=O)N2", "note": "(stereo not drawn)", "Potency": "inconclusive [inhibitor, single point]"}, {"smiles": "COc1cc(C2C(C(=O)Nc3ccccc3C)=C(C)Nc3nc(SCc4cc(C)ccc4C)nn32)ccc1O", "note": "(stereo not drawn)", "Potency": "inconclusive [inhibitor, single point]"}, {"smiles": "NC(=O)NC(=O)C(c1ccccc1)N1CCN(S(=O)(=O)c2ccc(Br)s2)CC1", "note": "(stereo not drawn)", "Potency": "inconclusive [inhibitor, partial curve]"}, {"smiles": "CCOC(=O)/C=c1\\s/c(=C\\c2ccccc2C)c(=O)n1CC(=O)NCc1ccc2c(c1)OCO2", "Potency": "inconclusive [inhibitor, single point]"}, {"smiles": "O=C(Nc1ccc(N2CCOCC2)cc1N1CCOCC1)c1ccc([N+](=O)[O-])cc1Cl", "Potency": "inactive"}, {"smiles": "CCOC(=O)c1c(NC(=O)c2cc3n(n2)C(C(F)(F)F)CC(c2cccs2)N3)sc(C)c1C", "note": "(stereo not drawn)", "Potency": "active: 5.17 µM"}, {"smiles": "CC(C)c1nc2ccc(C(=O)O)cc2[nH]1", "Potency": "inactive"}, {"smiles": "COc1cccc(CNC(=O)c2cc3c(c(-c4cccc(-c5cccc(C#N)c5)c4)n2)[C@H](CCO)N(S(=O)C(C)(C)C)C3)c1", "note": "(stereo partly drawn)", "Potency": "inconclusive [inhibitor, single point]"}, {"smiles": "CCCOc1ccc(NC(=O)C2CC(=O)N/C(=N/N=C(\\C)CCc3ccc4c(c3)OCO4)S2)cc1", "note": "(stereo not drawn)", "Potency": "inactive"}, {"smiles": "Cc1cc(Oc2nc3c(C)cccn3c(=O)c2/C=C(\\C#N)S(=O)(=O)c2ccc(Cl)cc2)ccc1Cl", "Potency": "inconclusive [inhibitor, single point]"}]}]}
